{"source": "PubChem BioAssay AID686979", "about": "(National Center for Advancing Translational Sciences (NCATS), 2013)", "note": "Values joined by “and” are separate entries in the source; they are usually repeats but may differ in a detail not shown here. Equal entries are not always repeated. Hit rate of the full screen: of about 420,000 compounds, about 50,000 (12%) were called active. Inconclusive means that the source gave no clear call. Such entries were picked first, then a sample of the others. The call rests on the fitted dose curve; in most records, active means well fitted inhibition curve with a large enough effect; inconclusive means small, poorly fitted or top-dose-only effect; inactive means flat fitted curve, though single readings scatter. Potencies of inconclusive entries are left out as doubtful fits. On the % scale 0 is the no-effect control and ±100 the full control effect; potency means the concentration at half of the fitted maximal effect; tags describe the fitted curve by direction and shape."}
{"assay": "qHTS for Inhibitors of human tyrosyl-DNA phosphodiesterase 1 (TDP1): qHTS in cells in presence of CPT; further: nearly all actives have a fitted effect of over 55% in size", "details": "chicken DT40 Tdp1-/-;hTDP1 cells + 20 nM CPT, ATP luminescence, 48 h; activity change, negative = growth inhibition: at 46.2 µM (top of the series) unless noted", "summary_of_the_method": "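Chicken DT40 Tdp1-/- cells complemented with human TDP1, 400 cells/well, exposed to compounds plus 20 nM camptothecin for at least 48 h at 37 C; viability read as ATP content by CellTiter-Glo luminescence.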"}
{"smiles": "Cn1c(=O)c2c(nc(CN3CCOCC3)n2CCCO)n(C)c1=O", "Potency": "inactive"}
{"smiles": "Cc1cccc(C)c1NC(=O)C(CCc1ccccc1)N1CCN(C)CC1", "note": "(configuration not stated)", "Potency": "inactive"}
{"smiles": "O=C(CN1CCOCC1)Nc1ccc(NC(=O)c2ccccc2F)cc1", "Potency": "inactive"}
{"smiles": "O=C(C1CCCN(S(=O)(=O)c2ccc(Br)s2)C1)N1CCN(c2cccc(Cl)c2)CC1", "note": "(configuration not stated)", "Potency": "active: 16.4 µM"}
{"smiles": "COc1cc(S(=O)(=O)N2CCCCC2)ccc1NC(=O)c1ccccc1Cl", "Potency": "active: 16.4 µM"}
{"smiles": "c1ccc(-c2nnc3sc(CN4CCC5(CC4)OCCO5)cn23)cc1", "Potency": "inactive"}
{"smiles": "C[C@@H]1CN([C@H](C)CO)C(=O)CCCn2nncc2CO[C@H]1CN(C)Cc1ccccc1C(F)(F)F", "Potency": "active: 14.6 µM"}
{"smiles": "COc1ccccc1C1Nc2c(sc3nc(C)cc(C)c23)C(=O)N1c1ccccc1", "note": "(configuration not stated)", "Potency": "inconclusive [inhibitor, single point]"}
{"smiles": "COCCn1c(=O)[nH]c2cc(C(=O)Nc3cccc(F)c3)ccc2c1=O", "Potency": "inactive"}
{"smiles": "CCOc1ccccc1-c1cc(C(=O)Nc2ccc(C(=O)O)cc2)c2ccccc2n1", "Potency": "inconclusive [inhibitor, partial curve]"}
{"smiles": "COCCNC(=O)/C(C#N)=C/c1ccc(O)cc1", "Potency": "inactive"}
{"smiles": "CCC1CCCCN1S(=O)(=O)c1ccc(S(=O)(=O)N2CCN(S(=O)(=O)CC)CC2)cc1", "note": "(configuration not stated)", "Potency": "inconclusive [inhibitor, single point]"}
{"smiles": "COc1ccc(-c2nn(-c3ccccc3)cc2/C=N/NC(=S)NC(C)C)cc1OC", "Potency": "active: 23.1 µM"}
{"smiles": "CCC(C)Sc1oc(-c2ccco2)nc1S(=O)(=O)c1ccc(C)cc1", "note": "(configuration not stated)", "Potency": "inconclusive [inhibitor, single point]"}
{"smiles": "Cc1ccc(C(=O)COC(=O)COc2ccccc2[N+](=O)[O-])s1", "Potency": "inactive"}
{"smiles": "OCc1cc(C(O)CNCCCCCCOCCCCc2ccccc2)ccc1O", "note": "(configuration not stated)", "Potency": "active: 7.5 µM and active: 18.8 µM"}
{"smiles": "COc1ccc(C(=O)/C=C/c2ccccc2)cc1", "Potency": "inconclusive [inhibitor, single point]"}
{"smiles": "COc1cccc(C2C(C(=O)Nc3ccc(Cl)cc3)=C(C)Nc3nc4ccccc4n32)c1", "note": "(configuration not stated)", "Potency": "active: 20.6 µM"}
{"smiles": "CCCn1c(O)c(N=NC(=O)CNC(=O)c2cccnc2)c2ccccc21", "Potency": "inactive"}
{"smiles": "CCNC(=O)N1CCC(n2nccc2NC(=O)CCCc2ccccc2)CC1", "Potency": "inactive"}
{"smiles": "COc1cc(/C=N/NC(=O)C(=O)/C=C2\\NC(C)(C)Cc3ccccc32)ccc1O", "Potency": "inconclusive [inhibitor, single point]"}
{"smiles": "CCOC(=O)N1CCC(NC(=O)c2cc(COc3c(C)cccc3C)on2)CC1", "Potency": "inconclusive [inhibitor, single point]"}
{"smiles": "O=C(NC(c1cccnc1)C(F)(F)F)c1cc(COc2ccc3c(c2)CCCC3)on1", "note": "(configuration not stated)", "Potency": "active: 4.11 µM"}
{"smiles": "COc1ccc(-c2nn(-c3ccccc3)cc2CNCc2cccnc2)c(F)c1", "Potency": "inconclusive [inhibitor, partial curve, poor fit]"}
{"smiles": "O=C(Nc1cccc(/C=C/c2ccccn2)c1)c1cc(Cl)ccn1", "activity change, negative = growth inhibition": "inconclusive: -34.5% [inhibitor]"}
{"smiles": "C=CC[C@]12CCc3ccccc3C1N(c1ccc(C(=O)OCC)cc1)C2=O", "note": "(some centres not stated)", "Potency": "inconclusive [inhibitor, single point]"}
{"smiles": "O=C(NC1CCS(=O)(=O)C1)c1cccc(Br)c1", "note": "(configuration not stated)", "Potency": "inactive"}
{"smiles": "O=C1CSC(=S)N1/N=C/c1cc(Br)c(O)c(Br)c1", "Potency": "inconclusive [inhibitor, single point]"}
{"smiles": "COc1ccccc1CCC(=O)NNC(=O)c1cccs1", "Potency": "inactive"}
{"smiles": "CCOC(=O)N1C/C(=C\\c2ccccc2)C(=O)/C(=C/c2ccccc2)C1", "Potency": "active: 4.61 µM"}
{"smiles": "Cc1ccc(S(=O)(=O)Oc2cccc([N+](=O)[O-])c2)cc1", "Potency": "active: 10.3 µM"}
{"smiles": "Cc1cc(C)nc(NC(N)=NCCc2ccccc2)n1", "Potency": "active: 2.59 µM"}
{"smiles": "CCNC(=S)N(CCc1c(C)[nH]c2ccc(Cl)cc12)Cc1cccnc1", "Potency": "inconclusive [inhibitor, single point]"}
{"smiles": "Cc1cc2c(cc1C)NC(CC(=O)Nc1cccc(Cl)c1)C(=O)N2", "note": "(configuration not stated)", "Potency": "active: 16.4 µM"}
{"smiles": "CCCCC(=O)Nc1nn(CC(C)C)c2nc3ccccc3cc12", "Potency": "inconclusive [inhibitor, single point]"}
{"smiles": "NS(=O)(=O)c1ccc(CCNC(=O)Cn2c(-c3cccs3)cc3ccccc32)cc1", "Potency": "inactive"}
{"smiles": "CC(C)(C)OC(=O)N1CCCC(C(=O)Nc2cccc(C(=O)N3CCOCC3)c2)C1", "note": "(configuration not stated)", "Potency": "inactive"}
{"smiles": "CC1CCC(NC(=O)CCS(=O)(=O)c2ccc3c(c2)NC(=O)CS3)CC1", "note": "(configuration not stated)", "Potency": "inactive"}
{"smiles": "CC(=O)c1c(C)[nH]c(C(=O)OCC(=O)Nc2sc3c(c2C#N)CCC(C)C3)c1C", "note": "(configuration not stated)", "Potency": "inconclusive [inhibitor, partial curve, poor fit]"}
{"smiles": "CCOC(=O)c1c(S(=O)(=O)N2c3ccccc3CC2C)c(C)n(C)c1C", "note": "(configuration not stated)", "Potency": "inconclusive [inhibitor, single point]"}
{"smiles": "O=Cc1cc2ccccc2nc1SCCCF", "Potency": "inconclusive [inhibitor, full curve, poor fit]"}
{"smiles": "CCOCC(=O)Nc1nc2ccc(OC)cc2s1", "Potency": "inconclusive [inhibitor, partial curve]"}
{"smiles": "C[C@]12CC[C@@H]3c4ccc(O[C@@H]5O[C@H](C(=O)O)[C@@H](O)[C@H](O)[C@H]5O)cc4CC[C@H]3[C@@H]1C[C@@H](O)[C@@H]2O", "Potency": "inactive"}
{"smiles": "COc1cc(/C=C2\\SC(=S)N(NS(=O)(=O)c3ccccc3)C2=O)cc(OC)c1OC", "Potency": "inconclusive [inhibitor, single point]"}
{"smiles": "N#Cc1cnc2c(-c3ccccc3)c(-c3ccccc3)nn2c1N", "Potency": "active: 23.1 µM"}
{"smiles": "O=C(NCc1ccccc1Cl)[C@H]1CCCN1C(=O)[C@H]1CCCN1C(=O)c1ccc(Cl)cc1", "Potency": "inconclusive [inhibitor, single point]"}
{"smiles": "CCN(CC)c1ccc(NC(=O)CCc2nc3cccnc3n2Cc2cccs2)c(C)c1", "Potency": "inconclusive [inhibitor, single point]"}
{"smiles": "CC1CCCN(CCOCCOc2ccccc2-c2ccccc2)C1", "note": "(configuration not stated)", "Potency": "inconclusive [inhibitor, single point]"}
{"smiles": "COc1ccc(-n2c(SCC(=O)Nc3ccc4c(c3)OCO4)nc3ccccc3c2=O)cc1", "Potency": "inconclusive [inhibitor, partial curve]"}
{"smiles": "Cc1[nH]c2c(C)cccc2c(=O)c1CN1CCCCCC1", "Potency": "inactive"}
{"smiles": "C=CCN1CCN(C(c2ccccc2)c2nnnn2CCC(C)C)CC1", "note": "(configuration not stated)", "Potency": "active: 6.51 µM"}
{"smiles": "CCCOC(=O)c1ccc(NC(=O)CCOc2ccccc2)cc1", "Potency": "inactive"}
{"smiles": "C=C(C)Cn1c(CCNC(=O)CCC)nc2ccccc21", "Potency": "inconclusive [inhibitor, single point]"}
{"smiles": "CN1CCN(S(=O)(=O)c2cccc(C(=O)NCCC3=CCCCC3)c2)CC1", "Potency": "inconclusive [inhibitor, single point]"}
{"smiles": "COc1ccc(NC(=O)CN(C)C(=O)CNC(=O)c2ccc3ccccc3c2)cc1", "Potency": "inactive"}
{"smiles": "CCOC(=O)C1=C(COC(=O)c2ccc(Br)c(S(=O)(=O)N3CCOCC3)c2)NC(=O)NC1C", "note": "(configuration not stated)", "Potency": "inconclusive [inhibitor, single point]"}
{"smiles": "Cn1c(=O)cc2c3c(c(N4CCCCC4)ccc31)C(=O)c1ccccc1-2", "Potency": "inconclusive [inhibitor, single point]"}
{"smiles": "Cc1ccc(SCc2cc(=O)[nH]c(/N=C(\\N)Nc3ccc(C)c(C)c3)n2)cc1", "Potency": "inconclusive [inhibitor, partial curve]"}
{"smiles": "COc1ccc(N2CCN(CC(=O)c3ccccc3)CC2)cc1", "Potency": "inconclusive [inhibitor, partial curve, poor fit]"}
{"smiles": "O=C(COC(=O)Cn1cnc2ccccc2c1=O)Nc1ccccc1Sc1ccc(Cl)cc1", "Potency": "active: 13 µM"}
{"smiles": "CCCCN(C(=O)c1ccc([N+](=O)[O-])o1)c1c(N)n(CC(C)C)c(=O)[nH]c1=O", "Potency": "inconclusive [inhibitor, single point]"}
{"smiles": "COCC(C)n1c(SCC(=O)Nc2cc(C)on2)nc2ccccc2c1=O", "note": "(configuration not stated)", "activity change, negative = growth inhibition": "inconclusive: -30.1% [inhibitor]"}
{"smiles": "COc1ccccc1C(=O)NC(C)c1cccc2ccccc12", "note": "(configuration not stated)", "Potency": "active: 8.2 µM"}
{"smiles": "Cn1c(Cc2ccccc2)nnc1SCC(=O)N1CCN(c2ccccc2)CC1", "Potency": "inconclusive [inhibitor, single point]"}
{"smiles": "COc1ccc(CCNC(=O)c2cc(-c3cc(Cl)ccc3O)n[nH]2)cc1OC", "activity change, negative = growth inhibition": "inconclusive: -31.8% [inhibitor]"}
{"smiles": "COc1ccccc1/C=C1\\SC(=S)N(CC(=O)NC2CCS(=O)(=O)C2)C1=O", "note": "(configuration not stated)", "Potency": "inactive"}
{"smiles": "CCOCCn1c(CN(Cc2ccccc2)Cc2ccccc2)nc2c1c(=O)n(C)c(=O)n2C", "Potency": "inconclusive [inhibitor, single point]"}
{"smiles": "CNC(=S)N(CCc1c(C)[nH]c2ccc(C)cc12)Cc1cccs1", "Potency": "inconclusive [inhibitor, single point]"}
{"smiles": "CC(=O)Oc1cccc(N2C(=O)C3C4C=CC(C4=C(C)C)C3C2=O)c1", "note": "(configuration not stated)", "Potency": "inconclusive [inhibitor, single point]"}
{"smiles": "COc1ccc(-c2nnc(NC(=O)c3ccc(F)cc3)o2)cc1", "Potency": "active: 2.91 µM"}
{"smiles": "CCOc1ccc(N2CC(O)Cn3c2nc2c3c(=O)n(CCCc3ccccc3)c(=O)n2C)cc1", "note": "(configuration not stated)", "Potency": "inconclusive [inhibitor, partial curve, poor fit]"}
{"smiles": "C#CCNC(=O)C1=C[C@@H](c2ccc3c(c2)OCO3)C[C@@H](OCc2ccc(CO)cc2)O1", "Potency": "inconclusive [inhibitor, single point]"}
